Several values for one entry are separate records, joined by “and”; a condition that tells them apart may be missing. Equal entries are not always repeated. The campaign covered roughly 410,000 compounds. About 6,400 (1.6%) were called active. The inconclusive results got no clear call from the source; some entries with a clear call stand among them for comparison. Calls come from the whole dose curve; as a rule, active = well fitted inhibition curve with a large enough effect; inconclusive = small, poorly fitted or top-dose-only effect; inactive = no such curve, though single readings can be large or run the other way. Potencies of inconclusive entries are doubtful fits and often do not repeat.
target: Glucagon-like peptide 1 receptor (Homo sapiens) (UniProt P43220); assay: qHTS of GLP-1 Receptor Inverse Agonists (Inhibition Mode); conditions: HEK293 GLP-1R CRE-luciferase, luminescence, 24 h, GLP-1R form is constitutively active; series mostly up to 38.3 µM; note: nearly all actives have a fitted effect of over 55% in size
In short: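 Cells are plated, allowed 12 hours at 37 deg C, then treated with compounds for 24 hr before luciferase detection reagent is added and luminescence is read after 12 min at room temperature. The HEK293 line carries constitutively active GLP-1R with a cAMP-responsive reporter.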
Potency is the fitted concentration of half-maximal effect; tags give direction and shape of the fitted curve.

Sequence of UniProt P43220 (P43220 whole entry, looked up): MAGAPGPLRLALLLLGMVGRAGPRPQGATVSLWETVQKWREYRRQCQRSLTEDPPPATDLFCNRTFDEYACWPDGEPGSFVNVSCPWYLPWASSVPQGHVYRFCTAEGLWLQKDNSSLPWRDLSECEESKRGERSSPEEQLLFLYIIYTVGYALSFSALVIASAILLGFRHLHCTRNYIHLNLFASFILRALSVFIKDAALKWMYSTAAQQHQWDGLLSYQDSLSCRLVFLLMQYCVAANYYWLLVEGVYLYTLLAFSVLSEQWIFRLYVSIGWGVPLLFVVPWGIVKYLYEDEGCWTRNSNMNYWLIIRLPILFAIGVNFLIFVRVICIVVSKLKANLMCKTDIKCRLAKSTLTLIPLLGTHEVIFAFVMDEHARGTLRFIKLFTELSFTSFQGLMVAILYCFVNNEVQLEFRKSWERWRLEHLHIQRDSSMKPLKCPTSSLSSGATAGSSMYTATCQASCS

Compound | Potency
CCC(C(=O)OCC(=O)Nc1ccc(C)c(S(=O)(=O)N2CCOCC2)c1)c1ccccc1 (configuration not stated) | inconclusive: 8.91 µM [inhibitor, partial curve, poor fit]
Cc1cc(OCC(=O)NCC2(N(C)C)CCCCC2)cc(C)c1Cl | inconclusive: 10 µM [inhibitor, partial curve, poor fit]
CCN(CC)C(=O)C1c2ccccc2Oc2ccccc21 | inconclusive: 10 µM [inhibitor, single point]
Cc1ccc(CCNC(=O)CN2C(=O)COc3ccc(S(=O)(=O)N4CCC(C)CC4)cc32)cc1 | inconclusive: 11.2 µM [inhibitor, partial curve, poor fit] and inconclusive: 28.2 µM [inhibitor, single point]
CCN1CCN(C(c2cccc(Cl)c2)c2c(O)cc(C)n(CCOC)c2=O)CC1 (configuration not stated) | inactive
CCOC(=O)C1CCCCN1S(=O)(=O)c1ccc2c(c1)CC(C)N2C(=O)C1CCC1 (configuration not stated) | inconclusive: 0.891 µM [inhibitor, full curve]
Cc1cccc(Cc2c(C)nc3c(C(=O)NCc4ccco4)cnn3c2C)c1 | inconclusive: 28.2 µM [inhibitor, single point]
O=C(COC(=O)c1ccc(Br)c(S(=O)(=O)N2CCOCC2)c1)NCCc1ccccc1 | inconclusive: 4.47 µM [inhibitor, partial curve, poor fit]
COC(=O)c1nn(-c2ccccc2)c(Sc2ccc(Cl)cc2)c1/C=N/O | inconclusive: 2.51 µM [inhibitor, partial curve, poor fit]
O=C(CCc1ccccc1Cl)Nc1cccc(S(=O)(=O)N2CCCC2)c1 | inconclusive: 14.1 µM [inhibitor, single point]
CCOC(=O)c1cnc2ccc(OCC)cc2c1N1CCN(c2cccc(Cl)c2)CC1 | inconclusive: 25.1 µM [inhibitor, single point]
Cc1ccc(-c2nc(Nc3ccccc3)n[nH]2)cc1 | inconclusive: 14.1 µM [inhibitor, single point]
O=C(CN(Cc1ccccc1)C(=O)c1ccc2c(c1)OCCO2)NCc1ccc2c(c1)OCO2 | inconclusive: 3.55 µM [inhibitor, full curve]
CCOC(=O)C1(Cc2ccccc2C(F)(F)F)CCN(Cc2ccon2)CC1 | inconclusive: 22.4 µM [inhibitor, single point]
O=C1CC(c2ccccc2)Cc2[nH]c(=O)c(-c3nc(-c4ccc(F)cc4)cs3)cc21 (configuration not stated) | inconclusive: 2.51 µM [inhibitor, partial curve, poor fit]
Cc1ccccc1-c1nc(CS(=O)CC(=O)NCCc2ccc(Cl)cc2)c(C)o1 (configuration not stated) | inconclusive: 22.4 µM [inhibitor, single point] and inconclusive: 10 µM [inhibitor, partial curve, poor fit]
COCc1cc(C)nc(Nc2ccccc2OC)c1C#N | inactive
Cc1nc(C(=O)NCC(=O)c2ccccc2)c(C(F)(F)F)o1 | inactive
O=C1NC[C@H](Cc2ccccc2)N(C[C@@H]2CCCN2C[C@H](Cc2ccc(O)cc2)N2C[C@H](Cc3ccccc3)N(CC3CCCCCC3)C(=O)C2=O)C1=O | inconclusive: 14.1 µM [inhibitor, single point]

Compound | Potency
Cc1cc2nc(C3CCN(Cc4nnnn4Cc4ccccc4)CC3)[nH]c2cc1C | inconclusive: 28.2 µM [inhibitor, single point]
CC(C)c1ccc(NC(=O)C(c2ccc3c(c2)OCO3)N2CCC3(CC2)OCCO3)cc1 (configuration not stated) | inconclusive: 1.41 µM [inhibitor, full curve, poor fit]
Cc1ccc2nnn(Cc3cccc(C(C)(C)C)c3O)c2c1 | inconclusive: 12.6 µM [inhibitor, single point]
Cc1sc(-c2cc3ccccc3oc2=O)nc1-c1ccc(Cl)cc1 | inactive
Cc1cc(N2CCN(C(=O)c3ccco3)CC2)n2ncc(-c3ccccc3)c2n1 | inconclusive: 12.6 µM [inhibitor, single point]
COc1ccc(-c2cc(C(F)(F)F)nc(S(=O)(=O)CCC(=O)N3CCOCC3)n2)cc1 | inactive
COc1ccc(CN(CCC(c2ccc(F)cc2)C2CCOC(C)(C)C2)C(=O)c2ccco2)cc1 (configuration not stated) | inconclusive: 11.2 µM [inhibitor, partial curve, poor fit]
Cc1ccc(SCCC(=O)NC(C)(C)C)cc1 | inconclusive: 28.2 µM [inhibitor, single point]
Cc1ccc(Cn2c(CCNc3nc(-c4ccc(C)cc4)cs3)nc3cc(C(=O)NCCCO)ccc32)cc1 | inactive
Cc1cc(C)c(OCC(=O)N(Cc2cccs2)C2CCS(=O)(=O)C2)c(C)c1 (configuration not stated) | inconclusive: 11.2 µM [inhibitor, partial curve, poor fit]
CCOc1cccc(-c2nnc3sc(C4CCCCC4)nn23)c1 | inconclusive: 11.2 µM [inhibitor, single point]
N#CCCn1cc(/C=N/O)c(-c2ccc(-c3ccccc3)cc2)n1 | inconclusive: 14.1 µM [inhibitor, single point]
Cc1cc(C)cc(OCC(=O)Nc2ccccc2C(=O)NCc2ccco2)c1 | inconclusive: 28.2 µM [inhibitor, partial curve, poor fit]
CC(C)c1ccc(NC(=O)c2cc(S(=O)(=O)N3CCCC3)c[nH]2)cc1 | inconclusive: 8.91 µM [inhibitor, partial curve, poor fit]
CN1C(=O)NC(c2ccccc2)(C(F)(F)F)S/C1=C(/C#N)c1nnc(N2CCOCC2)n1-c1ccccc1 (configuration not stated) | inconclusive: 12.6 µM [inhibitor, single point]
CC(C)c1ccc(CNc2nc(-c3ccco3)nn2S(=O)(=O)c2ccccc2)cc1 | inconclusive: 20 µM [inhibitor, single point]
C/C(=N\Nc1ncc(Cl)cc1Cl)c1ccc(OC(F)F)cc1 | inconclusive: 2.82 µM [inhibitor, single point]
O=C(c1ccco1)N1CCCC(c2nc3c(nnn3Cc3cccc(Cl)c3)c(=O)[nH]2)C1 (configuration not stated) | inconclusive: 12.6 µM [inhibitor, partial curve, poor fit]

Reference: PubChem BioAssay AID624417 (National Center for Advancing Translational Sciences (NCATS), 2012)
